# Test results: PubChem BioAssay AID1259400 (National Center for Advancing Translational Sciences (NCATS), 2018)
# In all, about 350,000 compounds went through this assay and about 2,100 (0.6%) were called active. Inconclusive means that the source gave no clear call. Such entries were picked first, then a sample of the others.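 How the source made its calls: active means activity change of -60% or lower, but not beyond a set lower limit; inconclusive means change between -60% and -40%, or beyond the set limit; inactive means change above -40%.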
# Biological target: Relaxin receptor 1 (Homo sapiens) (UniProt Q9HBX9)
# Assay: qHTS Assay for Antagonists of the Relaxin Receptor RXFP1
# Conditions: HEK293-RXFP1, relaxin-stimulated cAMP HTRF, 30 min; at 57.5 µM; hits give low values
# On the % scale 0 is the no-effect control and ±100 the full control effect.
# Sequence of UniProt Q9HBX9 (Q9HBX9 whole entry, looked up): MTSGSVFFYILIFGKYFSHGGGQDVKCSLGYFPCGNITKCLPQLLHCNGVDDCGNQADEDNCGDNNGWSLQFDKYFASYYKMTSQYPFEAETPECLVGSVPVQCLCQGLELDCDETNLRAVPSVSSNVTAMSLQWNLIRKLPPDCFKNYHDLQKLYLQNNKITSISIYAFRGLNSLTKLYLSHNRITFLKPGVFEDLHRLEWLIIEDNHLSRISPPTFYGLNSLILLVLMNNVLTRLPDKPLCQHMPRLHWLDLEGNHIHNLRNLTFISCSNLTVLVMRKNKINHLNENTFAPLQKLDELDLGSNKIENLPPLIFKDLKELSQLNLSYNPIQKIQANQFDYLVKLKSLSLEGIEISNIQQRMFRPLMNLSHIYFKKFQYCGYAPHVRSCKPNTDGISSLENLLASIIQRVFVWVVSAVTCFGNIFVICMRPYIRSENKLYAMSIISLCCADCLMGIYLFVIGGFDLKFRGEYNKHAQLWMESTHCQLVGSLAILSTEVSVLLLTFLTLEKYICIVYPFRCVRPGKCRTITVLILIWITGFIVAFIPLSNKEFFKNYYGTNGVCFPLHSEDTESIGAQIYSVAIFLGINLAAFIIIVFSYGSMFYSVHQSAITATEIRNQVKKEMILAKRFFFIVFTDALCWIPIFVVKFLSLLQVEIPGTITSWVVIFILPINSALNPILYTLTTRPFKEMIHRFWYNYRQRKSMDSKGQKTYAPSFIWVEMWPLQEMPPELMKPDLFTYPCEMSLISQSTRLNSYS
row,Structure (SMILES),"activity change, negative = inhibition"
1,CC1(C)CC(=O)C(C(C2=C(O)CC(C)(C)CC2=O)c2ccc(Br)s2)C(=O)C1 (stereo not drawn),active: -99%
2,CCN(CC)c1ccc(NC(=O)/C=C\c2ccccc2Cl)cc1,inconclusive: -45.1%
3,CCOc1ccc(C(=O)Nc2ccc(NC(=O)c3ccco3)c(Cl)c2)cc1Br,inactive: -19.3%
4,Cc1ccc(-c2cc(C(=O)N/N=C/C(Br)=C/c3ccccc3)n[nH]2)o1,inconclusive: -57.8%
5,COc1ccc(S(=O)(=O)N2CCN(CCCOc3ccc(F)cc3)CC2)cc1OC,inconclusive: -49.3%
6,Cc1n[nH]c(=S)n1/N=C/c1c(O)ccc2ccccc12,inconclusive: -45.1%
7,Cc1ccc(NC(=O)C2Cc3ccccc3C(=O)O2)cc1 (stereo not drawn),inconclusive: -48.5%
8,CCOc1ccc(CNC(=O)Cn2nc(C)c3c(C)n(-c4ccc(C)cc4)nc3c2=O)cc1,inconclusive: -45.2%
9,FC(F)(F)c1nnc2sc(-c3ccncc3)nn12,inactive: -6.23%
10,Cc1cccc(NC(=O)C(=O)NCC(c2ccc3c(c2)OCO3)N2CCN(c3ccccc3)CC2)c1 (stereo not drawn),inactive: -13.4%
11,C/C(=N\NC(=S)Nc1ccccc1C)C1Cc2ccccc2C(=O)O1 (stereo not drawn),inconclusive: -40.5%
12,O=C(CSc1nccn1C1CCCC1)Nc1cc(C(F)(F)F)ccc1Cl,active: -72.3%
13,COc1ccc(OC)c(C2=NNC(=NCc3ccc4c(c3)OCO4)SC2)c1,inconclusive: -50.5%
14,Cc1ccc(C(OCC(O)CNCc2ccc(F)cc2)c2ccccc2)cc1 (stereo not drawn),inconclusive: -47.1%
15,CCC(C(=O)NCCCc1ccccc1)n1nc(C)c2c(C)n(-c3ccccc3)nc2c1=O (stereo not drawn),active: -61.6%
16,Cc1ccc2nc(-c3ccncc3)cc(-c3ccccc3)c2c1,inconclusive: -42.8%
17,O=C1CCSC2(C(=O)N(Cc3ccc(F)cc3)c3ccccc32)N1c1ccc(Cl)cc1 (stereo not drawn),active: -79.5%
18,Cc1cc(Cl)c(S(=O)(=O)NC2CCCC2)cc1OCC(=O)NC1CCCCC1,inactive: -9.23%
19,COc1cc(OC)cc(-c2nnc(NC(=O)Cc3ccc(F)cc3)o2)c1,inconclusive: -46.3%
20,O=C(O)c1cc(N2C(=O)C3CCCCC3C2=O)ccc1NCc1cccnc1 (stereo not drawn),inconclusive: -58.4%
21,CC(C(=O)Nc1ccc(OC(F)(F)F)cc1)N1Cc2ccccc2C1=O (stereo not drawn),inconclusive: -46.4%
22,CC(NC(=O)/C=C/c1ccccc1)c1ccccc1 (stereo not drawn),inconclusive: -46.6%

row,Structure (SMILES),"activity change, negative = inhibition"
1,O=C(NCc1ccc(F)cc1)C1CCN(S(=O)(=O)c2cccc3nonc23)CC1,inconclusive: -47.9%
2,CCOC(=O)c1ccc(-n2c(CCC(=O)O)ccc2-c2ccccc2)cc1,inconclusive: -57.1%
3,CCc1cccc(NC(=O)C(Cc2ccccc2)n2cccc2)c1 (stereo not drawn),inconclusive: -59.3%
4,COc1ccc2c(c1)NC(C)(C)C=C2C,inconclusive: -40%
5,CC(C)(C)c1ccc(C(=O)NCC(c2ccc(Cl)cc2)N2CCOCC2)cc1 (stereo not drawn),inconclusive: -53.3%
6,O=C(O)c1ccc(-c2nc(-c3ccccc3)c(-c3ccccc3)[nH]2)cc1,inconclusive: -41.1%
7,O=C(NCCc1cnn(-c2ccccc2)c1)c1cc(COc2c(F)cccc2F)on1,inactive: -2.46%
8,CC(C)(C)c1ccc(C(=O)Nc2onc3c2CCCC3)cc1,active: -60.4%
9,O=C(/C=C/c1ccc(Cl)cc1Cl)c1cccnc1,inconclusive: -50.8%
10,COc1cc(CN2CCC(n3nccc3NC(=O)c3ccccc3OC)CC2)ccc1F,inactive: -25.1%
11,Cc1ccc(C)c(N2CCN(C(=O)CCCOc3cc(=O)n(C)c4ccccc34)CC2)c1,inconclusive: -49.5%
12,Cc1nc2cc(NC(=O)c3ccc(S(=O)(=O)N(C)c4ccccc4)cc3)ccc2o1,inactive: -29.2%
13,CC(C)(C)OC(=O)N1CCC(c2c(C(=O)NCCc3ccccc3)cnn2-c2ccc(F)cc2F)CC1,inconclusive: -40.1%
14,CCCCS(=O)(=O)c1oc(-c2ccc(F)cc2)nc1S(=O)(=O)c1ccc(C)cc1,active: -71.5%
15,Cc1ccc(-n2cc(-c3ccc([N+](=O)[O-])cc3)[nH]c2=S)c(C)c1,inconclusive: -57.4%
16,O=C(CCc1nc(-c2ccc(Cl)cc2)no1)NC1CCCCC1,inactive: -12.9%
17,O=C(Nc1nnc(-c2ccncc2)o1)c1ccc(Br)s1,inconclusive: -44.1%
18,CCCc1cc(C(=O)N2CCCC(Cc3cccc(Cl)c3)(C(=O)OCC)C2)n(C)n1 (stereo not drawn),active: -63.7%
19,COc1ccc(CC(=O)NNS(=O)(=O)c2ccc([N+](=O)[O-])cc2)cc1OC,active: -84%
20,Cc1ccc(-c2cc(C(=O)N/N=C/c3ccccc3O)n[nH]2)o1,inconclusive: -49.7%
21,Fc1ccccc1CNCCC(Cc1ccccc1)c1ccc2c(c1)OCO2 (stereo not drawn),inconclusive: -57%
